Reference: PubChem BioAssay AID720708 (National Center for Advancing Translational Sciences (NCATS), 2013)
About 660 (0.18%) of roughly 360,000 compounds were called active. Inconclusive results, whose numbers are uncertain, are shown with a selection of clear calls. The call rests on the fitted dose curve; in most records, active means well fitted inhibition curve with a large enough effect; inconclusive means small, poorly fitted or top-dose-only effect; inactive means no such curve, though single readings can be large or run the other way. Potencies of inconclusive entries are left out as doubtful fits.

These compounds were tested against Rap guanine nucleotide exchange factor 4 (Homo sapiens) (UniProt Q8WZA2) (assay: qHTS for Antagonist of cAMP-regulated guanine nucleotide exchange factor 2 (EPAC2): primary screen). Conditions: EPAC2 GEF exchange of Rap1B-BODIPY-GDP, fluorescence; series mostly up to 114 µM.
Sequence of UniProt Q8WZA2 (Q8WZA2 whole entry, looked up): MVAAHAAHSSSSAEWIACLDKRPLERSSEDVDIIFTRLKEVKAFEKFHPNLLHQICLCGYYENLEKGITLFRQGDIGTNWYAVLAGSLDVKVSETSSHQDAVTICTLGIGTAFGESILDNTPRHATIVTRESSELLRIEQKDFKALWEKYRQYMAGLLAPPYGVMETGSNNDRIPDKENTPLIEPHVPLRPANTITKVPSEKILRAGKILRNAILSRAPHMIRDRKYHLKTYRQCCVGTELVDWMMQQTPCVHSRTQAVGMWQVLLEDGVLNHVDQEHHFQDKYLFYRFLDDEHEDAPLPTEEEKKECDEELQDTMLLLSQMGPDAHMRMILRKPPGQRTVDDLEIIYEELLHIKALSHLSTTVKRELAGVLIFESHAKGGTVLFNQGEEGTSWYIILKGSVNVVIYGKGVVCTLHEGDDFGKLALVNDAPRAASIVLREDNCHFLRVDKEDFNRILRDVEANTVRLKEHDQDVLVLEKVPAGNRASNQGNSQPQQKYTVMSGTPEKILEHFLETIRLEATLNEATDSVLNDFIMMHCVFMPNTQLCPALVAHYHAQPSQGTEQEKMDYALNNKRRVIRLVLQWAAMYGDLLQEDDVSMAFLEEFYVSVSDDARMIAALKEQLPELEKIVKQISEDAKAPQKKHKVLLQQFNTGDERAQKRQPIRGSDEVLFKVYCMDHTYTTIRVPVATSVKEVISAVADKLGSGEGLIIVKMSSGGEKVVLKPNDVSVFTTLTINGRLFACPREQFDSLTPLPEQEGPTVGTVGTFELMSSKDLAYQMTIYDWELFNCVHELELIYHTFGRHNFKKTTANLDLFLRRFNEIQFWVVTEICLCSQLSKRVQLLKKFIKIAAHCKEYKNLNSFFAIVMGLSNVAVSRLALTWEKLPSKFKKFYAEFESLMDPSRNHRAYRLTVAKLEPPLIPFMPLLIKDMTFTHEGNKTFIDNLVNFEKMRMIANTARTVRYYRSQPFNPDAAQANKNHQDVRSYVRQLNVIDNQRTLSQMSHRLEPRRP
Further: nearly all actives have a fitted effect of over 45% in size.
Potency means the concentration at half of the fitted maximal effect; tags describe the fitted curve by direction and shape.

Row | Structure (SMILES) | Potency
1 | CC[C@@H]1CC=C[C@H]2[C@H]1C(=O)N(Cc1ccccc1)[C@H]2c1ccc(C(F)(F)F)cc1 | inconclusive [inhibitor, full curve]
2 | Cc1cccc2c(=O)oc(-c3ccccc3Cl)nc12 | inconclusive [inhibitor, single point]
3 | CCOP(=O)(OCC)c1ccc2ccc3ccccc3c(=O)c2c1 | inconclusive [inhibitor, full curve]
4 | CC(C)(C)c1cc(OC(=O)c2ccccc2F)ccc1O | inconclusive [inhibitor, partial curve]
5 | N#Cc1ccccc1S(=O)c1ccccc1C(=O)Nc1ccccc1 (centres undefined) | inconclusive [inhibitor, single point]
6 | COC(=O)c1ccc2nc(-c3ccc(F)cc3)c(Cc3ccc(C)cc3)n2c1 | inconclusive [inhibitor, full curve]
7 | O=C(CC1Sc2ccccc2NC1=O)NNc1cc(Cl)ccc1Cl (centres undefined) | inactive
8 | COc1ccc(S(=O)(=O)Cc2ccc(C(=O)N3CCN(c4cc(C)ccc4C)CC3)o2)cc1 | inconclusive [inhibitor, partial curve]
9 | O=C(Oc1cccc2ccccc12)c1ccccc1 | inconclusive [inhibitor, partial curve]
10 | Nc1nc(N)c(-c2cccc(C(F)(F)F)c2)c(Cc2cccc(C(F)(F)F)c2)n1 | inconclusive [inhibitor, partial curve]
11 | CC12CCC(=O)N1C(C(=O)NNC(=O)c1ccc(F)cc1)CS2 (centres undefined) | inconclusive [inhibitor, partial curve]
12 | Cc1ccccc1OCC(=O)Nc1ccc(N2CCN(C(=O)c3ccco3)CC2)cc1 | inconclusive [inhibitor, single point]
13 | CCN1CCc2c(sc(NC(=O)Nc3ccc(Cl)c(Cl)c3)c2C(N)=O)C1 | inconclusive [inhibitor, single point]
14 | Cc1ccc(-c2ccc(CN3C(CC(C)C)C(=O)N(Cc4cn(CCC5OCCO5)nn4)CCS3(=O)=O)cc2)cc1 (centres undefined) | inconclusive [inhibitor, partial curve]
15 | O=C1CCN(Cc2ccc(Cl)cc2Cl)C(=O)N1 | inactive
16 | Cc1ccc(NC(=O)Cn2sc3nc(C)cc(C)c3c2=O)c(Cl)c1 | inactive
17 | COc1cc(/C=C/C(=O)O)ccc1OS(=O)(=O)c1c(C)cc(C)cc1C | inconclusive [inhibitor, partial curve]
18 | C[C@H](CO)N1C[C@H](C)[C@@H](CN(C)CC2CCCCC2)Oc2c(NS(=O)(=O)c3cn(C)cn3)cccc2C1=O | inactive
19 | CC(C)(C)C(=O)NC(NC(=S)Nc1ccc(S(N)(=O)=O)cc1)C(Cl)(Cl)Cl (centres undefined) | inconclusive [inhibitor, full curve]
20 | COc1ccc(S(=O)(=O)Nc2ccc3c(c2)OCO3)cc1Cl | inconclusive [inhibitor, single point]
21 | COc1cc2c3nnc(-c4ccc(F)cc4)c-3cn(Cc3cccc(F)c3)c2cc1OC | inactive
22 | Clc1ccc2nc(-c3ccccc3)c(Cc3ccccc3)n2c1 | inconclusive [inhibitor, full curve, poor fit]
23 | CC(=O)C1=CCC(c2ccccc2)N(Cc2ccccc2)C1 (centres undefined) | inconclusive [inhibitor, partial curve]

Row | Structure (SMILES) | Potency
24 | O=C1C=CC(=Nc2ccc3c(c2)Cc2cc(F)ccc2-3)O1 | inactive
25 | CCN(Cc1ccc(OC)c(F)c1)C(=O)c1oc2ccccc2c1COC | inconclusive [inhibitor, partial curve]
26 | C=CCS(=O)(=O)c1cccc2cccnc12 | inactive
27 | Cc1ccc2nc(-c3ccccc3)c(-c3ccccc3)nc2c1 | inconclusive [inhibitor, partial curve]
28 | Cn1c(N)c(C(=O)COC(=O)C2(c3cccc(F)c3)CCCC2)c(=O)n(C)c1=O | inconclusive [inhibitor, single point]
29 | Cc1ccc(-c2nc3ccc(Cl)cn3c2Cc2ccccc2C(F)(F)F)cc1 | inconclusive [inhibitor, partial curve]
30 | O=C(Nc1cccc(S(=O)(=O)N2CCCCCC2)c1)c1ccc(Cl)nc1 | inconclusive [inhibitor, single point]
31 | CC1CCCN(C(=O)c2ccc(-c3ccccc3Cl)o2)C1 (centres undefined) | inconclusive [inhibitor, partial curve]
32 | CCc1c(C)c(C#N)c2nc3ccccc3n2c1-n1nc(C)cc1C | inconclusive [inhibitor, partial curve]
33 | CC1CN(C(=O)N2c3ccccc3Sc3ccccc32)CC(C)O1 (centres undefined) | inconclusive [inhibitor, partial curve]
34 | CCCS/C(N)=N/N=C/c1cc(C)ccc1O | inactive
35 | CCSc1nc(-c2ccccc2)nc(C(Cl)Cl)n1 | inconclusive [inhibitor, partial curve]
36 | CCOC(=O)c1ccc(/C=C2/C=C(c3ccccc3)N(c3ccc(Cl)c(C(=O)O)c3)C2=O)cc1 | inconclusive [inhibitor, single point]
37 | O=C(c1ccc(Oc2cc(Cl)cc(Cl)c2)o1)N1CCCCC1 | inconclusive [inhibitor, partial curve]
38 | Cc1ccc(/C=C2\S/C(=N/S(=O)(=O)c3cccs3)NC2=O)cc1 | inconclusive [inhibitor, partial curve]
39 | COc1ccc(S(=O)(=O)Nc2cccc(F)c2)cc1C | inconclusive [inhibitor, partial curve, poor fit]
40 | CCCn1cnc2c1c(=O)n(CCCCC(C)=O)c(=O)n2C | inactive
41 | COc1cc(/C=C/CO)cc(OC)c1OC/C=C(\C)CCC=C(C)C | inconclusive [inhibitor, partial curve]
42 | CSc1ccc(S(=O)(=O)NCc2ccc(Cl)cc2Cl)cc1 | inconclusive [inhibitor, single point]
43 | CC1=CC(C)(C)N(C(=O)c2ccccc2)c2ccc(C)cc21 | inconclusive [inhibitor, partial curve]
44 | O=C(Nc1cccc(C(F)(F)F)c1)c1ccc2nc(-c3ccco3)c(-c3ccco3)nc2c1 | inconclusive [inhibitor, full curve]
45 | CC(CSc1n[nH]c(=S)s1)c1ccccc1 (centres undefined) | inconclusive [inhibitor, partial curve]
46 | O=S(=O)(c1ccc(-c2nc3ccccc3s2)cc1)N1CCCC1 | inactive

Row | Structure (SMILES) | Potency
47 | Cc1ccccc1C(=O)O/N=C(\c1ccccc1)c1ccccn1 | inconclusive [inhibitor, partial curve]
48 | CC(C)(C)S(=O)(=O)/C(C#N)=N/Nc1ccc(Cl)cc1 | inconclusive [inhibitor, partial curve]
49 | CC1CC(C)CN(CCC(=O)Nc2ccc(Br)cc2)C1 (centres undefined) | inactive
50 | COc1ccc(N2C(=O)c3cccc4c(N(C)CCO)ccc(c34)C2=O)cc1 | inactive
51 | O=C(Nc1ccc(S(=O)(=O)Nc2ccccn2)cc1)c1ccc(Cl)cc1Cl | inactive
52 | COc1ccccc1-c1cnc(C(O)c2ccc(C(C)(C)C)cc2)[nH]1 (centres undefined) | inconclusive [inhibitor, partial curve]
53 | Cn1c(CC(=O)NNC(=O)c2cncc(Br)c2)nc2ccccc21 | inactive
54 | C=CCOC(=O)C1=C(C)Nc2nnnn2C1c1cccs1 (centres undefined) | inconclusive [inhibitor, single point]
55 | Cc1cc(O)c(C(C)C)cc1N=Cc1ccc([N+](=O)[O-])cc1 | inactive
56 | COc1ccc(NC(=O)CN2CCN(Cc3ccc4c(c3)OCO4)CC2)cc1OC | inactive
57 | CC(C(=O)Nc1cccnc1)N1C(=O)c2ccccc2C1=O (centres undefined) | inactive
58 | CN(c1ccc(C(=O)NCc2ccccn2)cc1)S(=O)(=O)c1ccc(Cl)cc1 | inconclusive [inhibitor, single point]
59 | CCn1c(=O)n(C)c2c(=O)n(C)c(=O)n(C)c21 | inconclusive [inhibitor, full curve]
60 | Cc1ccc2c(C)c(C(=O)NCc3ccc(S(N)(=O)=O)cc3)oc2c1C | inconclusive [inhibitor, single point]
61 | Cc1ccc(S(=O)(=O)Nc2ccc(C(=O)N3CCCC3)cc2)cc1 | inactive
62 | O=[N+]([O-])c1cc(Br)cc(/C=N/n2cnnc2)c1O | inconclusive [inhibitor, partial curve]
63 | COc1ccc(S(=O)(=O)N2CCOCC2)c2ccccc12 | inconclusive [inhibitor, partial curve]
64 | CCc1nc2nc(C)c(NS(=O)(=O)c3ccc(C4CCCCC4)cc3)c(=O)n2[nH]1 | inconclusive [inhibitor, single point]
65 | O=C(Nc1cccnc1)c1cc2cc(Br)ccc2oc1=O | inconclusive [inhibitor, partial curve]
66 | O=C(CN1CCN(c2cccc(C(F)(F)F)c2)CC1)N(C1CCCC1)C1CCS(=O)(=O)C1 (centres undefined) | inactive
67 | CC1(C(=O)NS(=O)(=O)c2ccc(Cl)s2)CCN1C(=O)c1ccc(C2CCCCC2)cc1 (centres undefined) | inconclusive [inhibitor, partial curve]
68 | CCC(=O)NC(c1ccc(C)cc1)c1cc(Cl)c2cccnc2c1O (centres undefined) | inconclusive [inhibitor, full curve]
69 | COc1cc(S(=O)(=O)Nc2ccccc2C)ccc1Cl | active: 28.2 µM
